Screen size: about 39,000 compounds; about 220 (0.56%) showed activity. The list shows a part of the results.
Tested on: Escherichia coli K-12 BW25113
Test: relative growth (OD600 normalised to plate interquartile mean) (fraction); higher = less growth inhibition, active = 0.2 or less
Settings: 50 µM; LB; incubation time: overnight (16-24 h)
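Note: static incubation at 37 °C against the wild-type strain, values averaged over two biological replicates.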

SMILES	relative growth
CC(C)NC(=O)Nc1ccc2c(c1)C(=O)N([C@@H](C)CO)C[C@H](C)[C@@H](CN(C)C(=O)Nc1ccc(F)cc1)OCCCC[C@H](C)O2	inactive: 1.04
C[C@@H]1CN([C@H](C)CO)C(=O)c2cc(NC(=O)Nc3ccc4c(c3)OCO4)ccc2O[C@@H](C)CCCCO[C@H]1CN(C)C(=O)C1CCCCC1	inactive: 1.01
C[C@H](CO)N1C[C@H](C)[C@@H](CN(C)Cc2ccc(-c3ccccc3)cc2)Oc2c(NS(=O)(=O)c3ccc(Cl)cc3)cccc2C1=O	inactive: 1.02
C[C@@H]1CN([C@H](C)CO)C(=O)c2cc(NC(=O)Nc3ccc4c(c3)OCO4)ccc2O[C@@H](C)CCCCO[C@@H]1CN(C)Cc1ccc(C(F)(F)F)cc1	inactive: 0.999
CS(=O)(=O)Nc1ccc2oc3c(OC(F)F)ccc(C(=O)Nc4c(Cl)cncc4Cl)c3c2c1	inactive: 1.07
C=CC[C@@H](CC(=O)NCCO)C(=O)N[C@@H](C)COC(=O)[C@@H](CC=C)NC(=O)OCC1c2ccccc2-c2ccccc21	inactive: 0.986
CNC[C@@H]1Oc2ccc(NS(=O)(=O)c3cn(C)cn3)cc2CC(=O)N([C@@H](C)CO)C[C@@H]1C	inactive: 0.918
Cc1cn([C@H]2C[C@H](O)[C@@H](CO)O2)c(=O)[nH]c1=O	inactive: 1.03
C[C@@H]1CN([C@@H](C)CO)C(=O)c2cc(Br)cnc2O[C@H]1CN(C)Cc1ccccc1C(=O)O	inactive: 0.993
COc1ccc(CN(C)C[C@H]2Oc3ccc(NS(=O)(=O)c4c(C)noc4C)cc3CC(=O)N([C@@H](C)CO)C[C@@H]2C)cc1	inactive: 0.995
C[C@@H]1CN([C@@H](C)CO)C(=O)c2cc(-c3ccc(C#N)cc3)cnc2O[C@@H]1CN(C)C(=O)Nc1ccc(C(F)(F)F)cc1	inactive: 0.993
COc1ccc(S(=O)(=O)Nc2ccc3c(c2)C(=O)N([C@@H](C)CO)C[C@@H](C)[C@H](CN(C)S(=O)(=O)c2cn(C)cn2)OCCCC[C@@H](C)O3)cc1	inactive: 1.01
C[C@@H]1CCCCO[C@@H](CN(C)C(=O)Nc2ccc3c(c2)OCO3)[C@H](C)CN([C@H](C)CO)C(=O)c2cc(NC(=O)CCC(F)(F)F)ccc2O1	inactive: 1.01
CC(C)Oc1cccc(CC(=O)N2CCC[C@](CC[N+]34CCC(c5ccccc5)(CC3)CC4)(c3ccc(Cl)c(Cl)c3)C2)c1	inactive: 0.979
C[C@@H]1CN([C@@H](C)CO)C(=O)c2cc(C#CCN(C)C)cnc2O[C@@H]1CN(C)C(=O)Nc1cccc(F)c1	inactive: 1
CC(C)NC(=O)Nc1cccc2c1O[C@H](CN(C)Cc1ccc(C(=O)O)cc1)[C@H](C)CN([C@H](C)CO)C2=O	inactive: 0.993
NC(=O)CCCCC1CCSS1 (stereo unspecified)	inactive: 1.18
CC(C)NC(=O)Nc1cccc2c1O[C@@H](CN(C)S(=O)(=O)c1ccccc1)[C@@H](C)CN([C@H](C)CO)C2=O	inactive: 0.995
COc1cccc(-c2cccc(-c3nc(C(=O)NCC(F)(F)F)cc4c3[C@@H](CCO)N([S@](=O)C(C)(C)C)C4)c2)c1	inactive: 0.928
Cc1noc(C)c1NC(=O)Nc1cccc2c1O[C@H](CN(C)Cc1ccc(Cl)c(Cl)c1)[C@@H](C)CN([C@H](C)CO)C2=O	inactive: 1
COc1ccc(NC(=O)N(C)C[C@H]2OCCCC[C@H](C)Oc3ccc(NS(=O)(=O)c4cccs4)cc3C(=O)N([C@@H](C)CO)C[C@H]2C)cc1	inactive: 1.03

SMILES	relative growth
CC(C)CCN1CCc2nnc(CO)n2CC1	inactive: 1
O=C(C[C@H]1C=C[C@@H](NC(=O)CN2CCOCC2)[C@@H](CO)O1)NC1CCCCC1	inactive: 0.987
COc1ccc(C2=CCCC2)cc1	inactive: 0.984
CC(/C=C/C(=O)NO)=C\c1ccccc1OCc1cn(-c2ccc(C[C@H]3C(=O)O[C@@H](Cc4ccccc4)[C@H]4[C@@H]5C=CCCC=C5CN43)cc2)nn1	inactive: 1.01
C[C@H](C(=O)O)N1C(=O)CSC1=O	inactive: 1.01
COc1cc2ccccc2cc1C(=O)OCC(=O)N(CC(C)C)c1c(N)n(Cc2ccccc2)c(=O)[nH]c1=O	inactive: 1.03
C[C@H](CO)N1C[C@H](C)[C@@H](CN(C)C(=O)CCCN(C)C)OCc2cn(nn2)CCCC1=O	inactive: 1.01
O=C(OOC(=O)c1ccccc1)c1ccccc1	inactive: 0.938
Cn1cnc(S(=O)(=O)N[C@@H]2CC[C@@H](CC(=O)N3CCN(c4ccccc4)CC3)O[C@@H]2CO)c1	inactive: 0.99
CO[C@@H](CN(C)S(=O)(=O)c1ccc(Cl)cc1)[C@@H](C)CN([C@H](C)CO)S(=O)(=O)c1cccc(Cl)c1	inactive: 0.893
C[C@H](CO)N1C[C@H](C)[C@H](CN(C)C(=O)c2ccc(F)cc2)OCc2ccccc2-c2c(n(C)c3ccccc23)C1=O	inactive: 1.01
C[C@@H]1CCCCO[C@@H](CN(C)S(=O)(=O)c2ccccc2)[C@H](C)CN([C@@H](C)CO)C(=O)c2cc(NC(=O)Nc3ccc(C(F)(F)F)cc3)ccc2O1	inactive: 1.01
COc1ccc(S(=O)(=O)N(C)C[C@H]2Oc3c(NC(=O)NC(C)C)cccc3C(=O)N([C@@H](C)CO)C[C@H]2C)cc1	inactive: 1
Cc1noc(C)c1NC(=O)Nc1cccc2c1O[C@H](CN(C)C(=O)NC(C)C)[C@@H](C)CN([C@H](C)CO)C2=O	inactive: 1.03
COc1ccc(S(=O)(=O)N(C)C[C@H]2Oc3c(NC(=O)Nc4c(C)noc4C)cccc3C(=O)N([C@H](C)CO)C[C@H]2C)cc1	inactive: 0.982
Cc1ccc(S(=O)(=O)N(C)C[C@@H]2Oc3ccc(NS(=O)(=O)c4ccccc4)cc3C(=O)N([C@@H](C)CO)C[C@@H]2C)cc1	inactive: 0.981
O=c1c(-c2nn[nH]n2)coc2ccccc12	inactive: 0.98
CCC1(C)OC(=O)N(C)C1=O (stereo unspecified)	inactive: 0.999
Nc1nc(=O)c2c([nH]1)NCC(CNc1ccc(C(=O)NC(CCC(=O)[O-])C(=O)[O-])cc1)N2C=O.[Ca+2] (stereo unspecified)	inactive: 1.05
NCCSC(=S)NC1CCCCCCC1	inactive: 0.961

From the supplement of paper PMC9446081
